Laboratory results: the RNAGym collection of RNA variant scans (doi:10.7554/elife.90254)
Read counts are not given, so values of variants with three or more changes are uncertain.

B1: OR4K15 (parent)
chain: GUUAACGGUCAUAGGCCAUGGAAACUAGGAGCACCAUUUCGCUGCCAGUGAAGAAAUGAACAAAGAAAAUCUGGGCCAGGCAGGCAUCAAAAGAAAUAGUCUUGCGCUCAACCAGAAAGUCUGUAAUCAUUUUAAGGGUA

Variants of: B1
Assay: self-cleavage, relative activity (ratio to wild type); higher = more cleavage; in vitro, sequencing; the parent is a self-cleaving ribozyme

| Variant | self-cleavage |
| --- | --- |
| GUUAACAGUCAUAGGCCAUGGAAACUAGGAGCACCAUUUCGCUGCCAGUGAAGAAAUGAACAAAGAAAAUCUGGGCCAGGCAGGCAUCAAAUGGAAUAGCCUUGCGCUCAACCAGAAAGUCAGUAAUCAUUUUAAGGGUA [G7A A92U A94G U100C U122A] | 2.77 |
| GUUAACAGUCAUAGGCCAUGGAAACUAGGAGCACCAUUUCGCUGCCAGUGAAGAAAUGAACAAAGAAAAUCUGGGCCAGGCAGGCAUCAAAAGAAAUAGUCUUGCGCUCAACCAGAAAGUCUGUAAUCAACUUAAGGGUA [G7A U130A U131C] | 1.14 |
| GUUAACAGUCAUAGGCCAUGGAAACUAGGAGCACCAUUUCGCUACCAGUGAAGAAAUGAACAAAGAAAAUCUGGGCCUGGCAGGCAUCAAAAGAAAUAGUCUUGCGCUCAAUCAGAAAGUCUGUAAUCAUUUUAAGGGUU [G7A G44A A78U C112U A140U] | 0.01 |
| GUUAACCGUCAUAGGCCAUGGAAACUAGGAGCACCACUUCGCUGCCAGUGAAGAAAUGAACAAAGAAAAUCUGGGCCAGGCAGGCAUCAAAAGAAAUAGUCUUGCGCUCAACCAGAAAGUCUGUAAUCAUUCUAAGGGUA [G7C U37C U132C] | 2.21 |
| GUUAACUGUCAUAGGCCAUGGAAACUAGGAGCACCAUUUCGCUGCCAGUGAAGAAAUGAACAAAGAGAAUCUGGGCCAGGCUGGCAUCAAAAGAAAUAGUCUUGCGCUCAACCAGAAAGUCUGUAAUCAUUUUAAGGGUA [G7U A67G A82U] | 0.34 |
| GUUAACAGUCAUAGGCCAUGGAAACUAGGAGCACCAUUUCGCUGCCAGUGAAGAAAGGAACAAAGAAAAUCUGGGCCAGGCAGGCAUCAAAAGAAAUAGUCUUGCGCUCAACCAGAAAGUCUGUAAUCAUUCUAAGGGUA [G7A U57G U132C] | 1.46 |
| GUUAACUGUCAUAGGCCAUGGAAACUAGGAGCACCAUUUCGCUGCCAGUGAAGAAAUGAACAAAGGAAAUCUGGGCCAGGCAGGCAUCAAAAGAAAUAGUCUUGCGCUCAACCGGAAAGUCUGUAAUCAUUUUAAGGGUA [G7U A66G A114G] | 0.35 |
| GUUAACUGUCAUAGGCCAUGGAAACUAGGGGCACCAUUCCGCUGCCAGUGAAGAGAUGAACAAAGAAAGUCUGGGCCAGGCAGGCAUCGAAAGAAAUAGUCUUGCGCUCAACCAGAAAGUCUGUAAUCAUUUUAAGGGUA [G7U A30G U39C A55G A69G A89G] | 0.44 |
| GUUAACUGUCAUAGGCCAUGGAAACUAGGAGCACCAUUUCGCUGCCAGUGAAGAAAUGAACAAAGAAGAUCCGGGCCAGGCAGGCAUCAAAAGAAAUAGUCUUGCGCUCAACCAGAAAGUCUGUAAUCAUUUUAAGGGUA [G7U A68G U72C] | 0.26 |
| GUUAACUGUCAUAGGCCAUGGAAACUAGGAGCACCAUUUCGCCGCCAGUGAAGAAAUGAACAAAGAAAAUCUGGGCCAGGCUGGCAUCAAAAGAAAUAGUCUUGCGCACAACCAGAAAGUCUGUAAUCAUUUUAUGGGUA [G7U U43C A82U U108A A135U] | 0.01 |
| GUUAACGAUCUUAGGCCAUGGAAACUAGGAGCACCAUUUCGCUGCCAGUGAAGAAAUGAACAAAGAAAACCUGGGCCAGGCAGGCAUCAAAAGAAAUAGUCUUGCGCUCAACCAGAAAGUCUGUAAUCAUUUUAAGGGUA [G8A A11U U70C] | 0.18 |
| GUUAACAGUCAUAGGCCAUGGAAACUAGGAGCACCAUUUCGCUGCCAGUGAAGAAAUGAACAAAGAAAAUCUGGGCCAGGUAGGCUUCAAAAGAAAUAGUCUCGCGCUCAACCAGAGAGUCUGUAAUCAUUUUAAGGGUA [G7A C81U A86U U103C A117G] | 0.19 |
| GUUAACUGUCAUAGGCCAUGGAAACUAGGAGCACCAUCACGCUGCCAGUGAAGGAAUGAACAAAGAAAAUCUGGGCCAGGCAGGCAUCAAAAGAAAUAGUCUUGCGCUCAACCAGAAAGUCUGUAAUCAUUUUAAGGGUA [G7U U38C U39A A54G] | 1.91 |
| GUUAACUGUCAUAGGCCAUGGAAACUAGGAGCACCAUUUCGCUGCCUGUGAAGAAAUGAACAAAGAAAAUCUGGGCCAGGCAGGCAUCAAGAGAAAUAGUCUUGCGCUCAACCAGAAAGUCUGUAAUCAUUUUAAGGGUA [G7U A47U A91G] | 0.81 |
| GUUAACAGUCAUAGGCCAUGGAAACUAGGAGCACCAUUUCGCUGCCAGUGAAGAAAUGAACAAAGAAAAUCUGCGCCAGGCAGGCAUCAAAAGAAAUAGUCUUGCGCUCAACCAGAAAGUCUGUAAUCAUUUUAAAGGUA [G7A G74C G136A] | 0.37 |
| GUUAACUGUCAUAGGCCAUGGAAACUAGGAGCACCGUUUCGCUGCCAGAGAAGAAAUGAACAAGGAAAAUCUGGGCCAGGCAGGCAUCAAAAGAAAUAGUCUUGCGCUCAACCAGAAAGUCUGUAACCAUUUUAAGGGUA [G7U A36G U49A A64G U127C] | 0.22 |
| GUUAACAGUCAUAGGCCAUGGAAACUAGGAGCACCAUUUCGCUGCCAGUGAAGAAAUGAACAAAGAAAAUCUGGGUCAGGCAGGCAUCAAAAGAAAUAGUCCUGCGCUCAACCAGAAAGUCUGUAAUCAUUUUAAGGGUA [G7A C76U U102C] | 0.11 |
| GUUAACAGUCAUAUGCCAUGGAGACUAGGAGCACCAUUUCGCUGCCAGUGAAGAAAUGAACAAAGAAAAUCUGGGCCAGGCAGGCAUCAAAAGAAAUAGUCUUGCGCUCAACCGGAAAGUCUGUAAUCAUUUUAAGGGUA [G7A G14U A23G A114G] | 0.31 |
| GUUAACUGUCAUAGGCCAUGGAAACUAGGAGCGCCAUUUCGCCGCCAGUGAAGAAAUGAACAAAGAAAAUCUGGGCCAGGCAGGCAUCAAAAGAAAUAGUCUUGCGCUCAACCAGAAAGUCUGUAAUCAUUUUAGGGGUA [G7U A33G U43C A135G] | 0.66 |
| GUUAACAGUCAUAGGCCAUGGAAACUAGGAGCACCAUUCCGCUGCCAGUGAAGAAAUGAACAAGGAAAAUCUGGGCCAGGCAGGCAUCAAAAGAAAUAGUCUUGCGCUCAACCAGAAAGUCUGUAACCAUUUUAAGGGUA [G7A U39C A64G U127C] | 1.32 |
| GUUAACUGUCAUAGGCCAUGGAAACUAGGGGCACCAUUUCGCUGCCAGUGAAGAAAUGAACAAAGAAGAUCUGGGCCAGGCAGGCAUCAAAAGAAAUAGUCUUGCGCUCAACCAGAAAGUCUGUAAUCAUUUUAAGGGUA [G7U A30G A68G] | 1.71 |

| Variant | self-cleavage |
| --- | --- |
| GUUAACAGUCAUAGGCCAUGGAAACUAGGAGCACCAUUUCGCAGCCAGUGAAGAAAUGGACAAAGAGAAUCUGGGCCAGGCAGGCAUCAAAAGAAAUAGUCUUGCGCUCAACCAGAAAGUCUGUAAUCAUUUUAAGGGUA [G7A U43A A59G A67G] | 1.63 |
| GUUAACAGUCAUAGGCCAUGGAAACUAGGAGCACCAUUUCGCCGCCAGUGAAGAAAUGAACAAAGAAAAUCUGGGCCAGGCAGGCAUCAAAGGAAACAGUCUUGCGCUCAACCAGAAAGUCUGUAAUCAUUUUAAGGGUA [G7A U43C A92G U97C] | 1.09 |
| GUUAACAGUCAUAGGCCAUGGAAACUAGGAGCACCAUUUCGCUGCCAGUGAAGAAAUGAACAAAGAAAAUCUGGGCCAGGCAGGCACCAAAAGAAGUAGUCUUGCGCUCAACCAGAAAGUCUGUAAUCAUUUUAAGGGUA [G7A U87C A96G] | 2.05 |
| GUUAACUGUCAUAGGCCCUGGAAGCUAGGAGCACCACCUCGCUGCCAGUGAAGAAAUUAACAAAGAAAAUCUGGGCCAGGCAGGCAUCAAAAGAAAUAGUCUUGCGCUCAACCAGAAAGUCGGUAAUCAUUUUAAGGGUA [G7U A18C A24G U37C U38C G58U U122G] | 1.23 |
| GUUAACUGUCAUAGGCCAUGGAAACUAGGGGCACCACUUCGCUGCCAGUGAAGAAAUGAACAAAGAAAAUCUGGGCCAGGCAGGCAUCGAAAGAAAUAGUCUUGCGCUCAACCAGAAAGUCUGUAAUCAUUUUAAGGGUA [G7U A30G U37C A89G] | 0.82 |
| GUUAACUGUCGUAGGCCAUGGAAACUAGGAGCACCAUUUCGCUGCCAGUGAAGAAAUGAACAAAGAAAAUCUGGGCCAGGCAGGCAUCAAAAGAGAUAGUCUUGCGCUCAACCAGAAAGUCUGUAAUCAUUUUAAGGGUA [G7U A11G A95G] | 1.76 |
| GUUAACAGUCAUAGGCCAUGGAAACUAGGAGCACCAUUUCGCUACCAGUGAAGAAAUGGACAAAGAAAAUCUGGGCCAGGCAGGCAUCAAAAGAAAUAGUCUUGCGCUCAACCAGAAAGUCUGUAAUCACUUUAAGGGUA [G7A G44A A59G U130C] | 0.98 |
| GUUAACAGUCAUAGGCCAUGGAAACUAGGAGCACCAUCUCGCUGCCAGUGAAGAAAUGAACAAAGAAAAUCUGGGCCAGGCUGGCAUCAAAAGAAAUAGUCUUGCGCUCAACCAGAAAGUCUGUAGUCAUUUUAAGGGCA [G7A U38C A82U A126G U139C] | 0.13 |
| GUUAACAGUCAUAGGCCAUGGAAACUAGGAGCACCAUCUCGCUGCCAGUGAAGAAAUGAACAAAGAAAAUCUGGGCCAGGCAGGCAUCAAAAGAAACAGUCUUGCGCUCAACCAGAAAGUCUGUAAUCAUUUUAAGGGUA [G7A U38C U97C] | 1.41 |
| GUUAACGAUCAUAGGCCAUGGGAACUAGGAGCACCACUUCUCUGCCAGUGAAGAAAUGAACAAAGAAAGUCUGGGCCAGGCAGGCAUCAAAAGAGAUAGUCUUGCGCUCAACCAGAAAGUCUGUAAUCAUUUUAAGGGUA [G8A A22G U37C G41U A69G A95G] | 1.22 |
| GUUAACAGUCAAAGGCCAUGGAAACUAGGAGCACCAUUUCGCUGCCAGUGAAGAAAUGAACAAAGAAACUCUGGGCCAGGCAGGCAUCAGAAGAAAUAGUCUUGCGCUCAACCAGAAAGUCUGUAAUCAUUUUAAGGGUA [G7A U12A A69C A90G] | 1 |
| GUUAACUGUCAUAGGCCAUGGAAACUAGGAGCACUAUUUCGCUGCCAGUGAAGAAAUGAGCAAAGAAAAUCUGGGCCAGGCAGGCAUCAAAAGAAAUAGUCUUGCGCUCAACCAGAAAGUCUGUAAGCAUUUUAAGGGUA [G7U C35U A60G U127G] | 0.68 |
| GUUAACUGACAUAGGCCAUGGAAGCUAGGAGCACCAUUUCGCUGCCAGUGAAGAAAUGAACAAAGAAAAUCUGGGCCAGGCAGGCAUCAAAAGAAAUAGUCUUGCGCUCAACCAGAAAGUCUGUAAUCAUUUUAAGGGUA [G7U U9A A24G] | 1.59 |
| GUUAACAGUCAUAGGCCAUGGAAACUAGGAGCACCAUUUCGCUGCCAGUGAAGAAAUGAACAAAGAAAAUCUGGGCCAGGCAGGCAUCAAAAGAAAUAGUCCUGUGCUCAACCAGAAAGUCUGUAAUCAUUUUAAGGGUA [G7A U102C C105U] | 0.8 |
| GUUAACAGCCAUAGGCCAUGGAAACUAGGAGCACCAUUUCGCUGCCAGUGAAGAAAUGAACAAAGAAAAUCUGGGCCAGGCAGGUAUCAAAAGAAAUAGUCUUGCGCUCAACCAGAAAGUCUGUAAUCAUUUUAAGGGUA [G7A U9C C85U] | 1.41 |
| GUUAACUGUCAUAGGCCAUGGAAACUAGGAGCACCAUUUCGCUGCCAGUGAAGAAAUGAACAAAGAAAAUCUGGGCCAGGCAGGCAUCAAAAGAAAUAGUCUUGCGCUCAACCAGAAUGUCUGUAGUCAUUUUAAGGGUA [G7U A118U A126G] | 0.24 |
| GUUAACUGUCACAGGCCAUGGAAACUAGGAGCACCAUUUCGCAGCCAGUGAAGAAAUGAACAAAGAAAAUCUGGGCCAGGCAGGCAUCAAAAGAAAUAGUCUUGCGCUCAACCAGAAAGUCUGUAAUCAUUUUAAGGGUA [G7U U12C U43A] | 1.47 |
| GUUAACUGUCAUAGGCCAUGGAAACUAGGAGCACCAUUUCGCUGCCAGUGAAGAAAUGAACAAAGAAAACCUGGGUCAGGCAGGCAUCAGAAGAAAUAGUCUUGCGCUCAACCAGAAAGUCUGUAAUCAUUUUAAGGGUA [G7U U70C C76U A90G] | 0.27 |
| GUUAACUGUCAUAGGCCAUGGAAACUAGGAGCAUCAUUUUGCUGCCAGUGAAGAAAUGAACAAAGACAAUCUGGGCCAGGCAGGCAUCAAAAGAAAUAGUCUUGCGCUCAACCAGAAAGUCUGCAAUCAUUUUAAGGGUA [G7U C34U C40U A67C U124C] | 1.71 |
| GUUAACUGUCAUAGGCCAUGGGAACUAGGAGCACCACUUCGCUGCCAGUGAAGGAAUGAACAAAGAAAAUCUGGGCCAGGCAGGCAUCAAAAGAAAUAGUCUUGCGCCCAACCAGAAAGUCUGUAAUCAUUCUAAGGGUA [G7U A22G U37C A54G U108C U132C] | 0.02 |
